Over roughly 33,000 sequences, “E-score (-0.5 to 0.5)” has its median near -0.043; the highest 2% begin near 0.37. The list shows a part of the results.
Each sequence was assayed against T1, Upc2 (UniProt Q12151) (assay: PBM E-score (8-mer binding enrichment) (E-score (-0.5 to 0.5)); higher = stronger / more preferred TF binding; most listed sequences are background and not binding sites). Conditions: protein concentration: 200 nM; construct: GST-full length.
T1 sequence: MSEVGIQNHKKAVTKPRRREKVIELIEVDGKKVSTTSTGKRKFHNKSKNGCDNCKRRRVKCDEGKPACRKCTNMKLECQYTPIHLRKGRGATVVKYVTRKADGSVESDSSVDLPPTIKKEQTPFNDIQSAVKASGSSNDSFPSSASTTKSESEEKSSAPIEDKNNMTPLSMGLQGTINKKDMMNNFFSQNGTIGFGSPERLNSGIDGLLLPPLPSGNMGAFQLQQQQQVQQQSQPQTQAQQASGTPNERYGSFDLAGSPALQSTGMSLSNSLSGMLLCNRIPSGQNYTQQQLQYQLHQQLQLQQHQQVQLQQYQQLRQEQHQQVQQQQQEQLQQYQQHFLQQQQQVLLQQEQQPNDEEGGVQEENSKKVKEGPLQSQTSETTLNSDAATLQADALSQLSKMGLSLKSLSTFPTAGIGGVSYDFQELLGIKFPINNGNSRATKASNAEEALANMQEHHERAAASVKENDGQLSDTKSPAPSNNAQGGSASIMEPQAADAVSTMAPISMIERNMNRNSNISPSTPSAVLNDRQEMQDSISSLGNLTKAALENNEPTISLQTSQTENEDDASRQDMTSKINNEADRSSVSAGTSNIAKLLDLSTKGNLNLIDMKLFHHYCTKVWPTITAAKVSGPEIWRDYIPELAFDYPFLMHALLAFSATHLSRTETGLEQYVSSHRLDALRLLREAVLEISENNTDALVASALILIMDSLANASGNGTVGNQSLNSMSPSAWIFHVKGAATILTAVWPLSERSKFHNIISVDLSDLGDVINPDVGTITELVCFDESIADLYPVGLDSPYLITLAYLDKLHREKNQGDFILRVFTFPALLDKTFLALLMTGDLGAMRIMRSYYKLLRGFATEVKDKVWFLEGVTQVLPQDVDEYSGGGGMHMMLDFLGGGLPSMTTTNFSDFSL
How it was run: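 Detection of bound protein used fluorescent anti-GST, with scans normalised by masliner. The proteins were GST-tagged yeast transcription factors applied at about 100-200 nM to universal all-10-mer Agilent arrays made double-stranded by primer extension. Each ungapped eight-base word, pooled with its reverse complement, was scored with an E-score from the Universal PBM Analysis Suite.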

Sequence | PBM E-score
GACGCCTC | 0.103
GGGAATTA | -0.0613
CACTCTAA | -0.215
ACCGTTAC | 0.221
GCAGTTAC | -0.0121
CATTATAG | -0.0846
GGGGTCTA | -0.168
GTATCCCA | -0.079
CACTACTA | -0.191
ATTCGCAA | -0.00304
AAAGGCAA | -0.142
CACCCATG | -0.223
ACAGAAAA | 0.0844
AGATCATA | 0.0437
CCGCAAGA | 0.0113
AATATAGA | 0.0283
AAACTCCT | -0.187
GCATAGCA | 0.0496
AGGTGCAC | -0.102
AAGTTTAT | -0.0152
GACCTTGC | 0.0484
AAAAGTGC | -0.0156

Sequence | PBM E-score
GAATCATA | -0.128
CATCACTA | -0.183
GTCATAAC | -0.108
CCACCGGG | -0.167
CATTTAAA | 0.0632
CCGGTTTA | 0.168
AGGCCAGA | -0.282
ATTACTTA | 0.0288
CTTATTTC | 0.0806
CGTTACCA | 0.171
CCGTACCA | 0.368
AACCCGCG | 0.057
AACATGTG | -0.0031
CGGTGACA | -0.162
CATAGCAC | -0.0714
CCCCGACG | -0.0593
CTAAACAG | -0.0266
CTAGACGC | -0.0348
CTAAAGAG | -0.0322
CACTGTAC | 0.111
CATAATGC | -0.128
ACGTTGCT | 0.136

Sequence | PBM E-score
GGCAGGAC | -0.157
GCCTCCCA | -0.118
GAACGACA | 0.437
CACTACGA | 0.296
GAAGCTGA | -0.151
GGATTAGA | -0.181
AGATAACG | 0.088
GATTTACA | 0.015
AGTTTTTG | -0.111
GCACCGAC | -0.0498
GGAAGTAA | -0.0533
CGCTGGAA | -0.186
GGTAATTA | 0.115
GACATGAC | -0.101
CCGAATTC | 0.0798
AAGCTCTA | 0.0768
ATCACGGG | -0.175
CGACGGCA | 0.193
GAAATGCA | -0.0271
GCGCTGCC | -0.205
CAATCGAG | 0.0643
ACCATGTC | 0.0657

Sequence | PBM E-score
CGGTTTTA | 0.108
CATTCCCC | -0.191
GCGTGACA | -0.121
CTGCTATA | -0.025
CCTAAGCA | -0.124
CTAAGACA | 0.0291
GACAAATC | 0.00339
GAAAAAAA | 0.116
CCGGTTTC | -0.143
AGGCCCTG | -0.142
TCTGCTCA | -0.179
CAAAAGGG | -0.209
GAAAAGAC | -0.0791
CGCCTTAC | 0.155
ATAGATAC | 0.142
GTACACGA | 0.336
CCGTATGA | 0.392
TTACTGAA | 0.182
AGCAGTCC | -0.299
CGCGCTGA | -0.165
